# Numbering of substitutions follows the chain as printed.
# B1: VG9B421 (antibody, human IgG1, kappa)
# heavy: EVQLVESGGGLVKPGGSLRLSCAASGFTFSNYGMNWVRQAPGKGLEWVSYISSGSSYKYYADSMKGRFTISRDNAMNLLYLQMNSLRPEDSAMYYCARDPVVTEYYYYGMDVWGQGTMVTVSS[human IgG1 constant region omitted here]
# light: DIQMTQSPSSVSASVGDRVTITCRASQGINSWLAWYQQKPGNAPKLLIYAASSLQSGVPSRFSGIGSGTDFIFTISSLQPEDFASYYCQQANSFPWTFGQGTRLEIKRTVAAPSVFIFPPSDEQLKSGTASVVCLLNNFYPREAKVQWKVDNALQSGNSQESVTEQDSKDSTYSLSSTLTLSKADYEKHKVYACEVTHQGLSSPVTKSFNRGEC
# B2: VG9B88 (antibody, human IgG1, kappa)
# heavy: EVQLVESGGGLVKPGGSLRLSCAVSGFTFSSYTMNWVRQAPGKGLEWVSSISTSSSYIDYADSVKGRFTISRDNAKKSLYLQMNSLRAEDTAVYYCARDGDMVAPIKGSFDYWGQGTLVTVSS[human IgG1 constant region omitted here]
# light: EIVLTQSPLSLPVTPGEPASISCRSSQSLLNSDDGNTYLDWYLQKPGQSPQLLIYTLSYRASGVPDRFSGSGSGTDFTLKISRVEAEDVGVYYCMQRIEFPITFGQGTRLEIKRTVAAPSVFIFPPSDEQLKSGTASVVCLLNNFYPREAKVQWKVDNALQSGNSQESVTEQDSKDSTYSLSSTLTLSKADYEKHKVYACEVTHQGLSSPVTKSFNRGEC
# B3: VG9B147 (antibody, human IgG1, lambda)
# heavy: QVQLQESGPGLVNPSETLSLTCTVSGGSISGYFWNWIRQPPGKGLEWIGYIFYSGSTNYNPSLKSRVTISVDTSKNQFSLKLSSVTAADTAIYYCAREGKWELRSTFDIWGQGTMVTVSS[human IgG1 constant region omitted here]
# light: SSELTQDPAVSVALGQTVRITCQGDSLRSYYATWYQQKPGQAPILVIYGENNRPSGIPDRFSGSRSGNTASLTITGAQAEDEADYYCNSRDTGDHHLVFGGGTKLTVLGQPKAAPSVTLFPPSSEELQANKATLVCLISDFYPGAVTVAWKADSSPVKAGVETTTPSKQSNNKYAASSYLSLTPEQWKSHRSYSCQVTHEGSTVEKTVAPTECS
# B4: VG9B81 (antibody, human IgG1, kappa)
# heavy: QVQLQESGPGLVKPSETLSLTCSVSGGSINTYYWSWFRQPAGKGLELIGRIYTSDNTNYNPSLKSRVTMSVDTSKNQFSLKLSSVTAADTAVYYCARYNWNYWYFDLWGRGTLVTVSS[human IgG1 constant region omitted here]
# light: DIQMTQSPSFLSASVRDRVNITCRASQGISSYLAWYQQKPGKAPKLLIYTASTLQSGVPSRFSGSGSGTEFTLTISSLQPEDFATYYCQHLNSYPYTFGQGTKVEIKRTVAAPSVFIFPPSDEQLKSGTASVVCLLNNFYPREAKVQWKVDNALQSGNSQESVTEQDSKDSTYSLSSTLTLSKADYEKHKVYACEVTHQGLSSPVTKSFNRGEC
# B5: VG9B203 (antibody, human IgG1, lambda)
# heavy: QVQLVQSGPGLVKPSETLSLTCTVSGDSIGHYYWNWIRQPAGKGLEWIGRIYTSGSTNYNPSLKSRVTMSVDTSKNQFSLKLSSVTAADTAVYYCARSGGNFYWYFDLWGRGTLVTVSS[human IgG1 constant region omitted here]
# light: QSVLTQPPSVSAAPGQKVTISCSGSSSNIGNNYVSWYQQVPGTAPKLLIYDNNKRPSGIPDRISGSKSGTSATLGITGLQTGDEADYYCGTWDSSLSAGVFGGGTKVTVLGQPKAAPSVTLFPPSSEELQANKATLVCLISDFYPGAVTVAWKADSSPVKAGVETTTPSKQSNNKYAASSYLSLTPEQWKSHRSYSCQVTHEGSTVEKTVAPTECS
# B6: VG9B380 (antibody, human IgG1, lambda)
# heavy: QVQLQESGPGLVKPSETLSLTCTVSGGSISNYYWSWIRQPAGKGLEWIGRIYPSGITSYDPSLKSRVTMSLDTSKNQFSLKLTSVTAADTAVYYCAGIMGTKGAFDIWGQGTMVTVSS[human IgG1 constant region omitted here]
# light: QSALTQPASVSGSPGQSITISCTGTSSDVGGYNYVSWYQQHPGKAPKLLIYEVSNRPSGVSNRFSGSKSGSTASLTISGLQAEDEADYYCSSYTSTSVVFGGGTKLTVLGQPKAAPSVTLFPPSSEELQANKATLVCLISDFYPGAVTVAWKADSSPVKAGVETTTPSKQSNNKYAASSYLSLTPEQWKSHRSYSCQVTHEGSTVEKTVAPTECS
# B7: VG9B103 (antibody, human IgG1, kappa)
# heavy: EVQLVQSGAEVKKPGSSVKVSCKTSGGTFSSYAISWVRQAPGQGLEWMGGIIPIFGTATYAQKFQDRVTITADKSTSTAYMELSSLRSEDTAVFYCARGVGWGTDYYYGLDVWGQGTTVTVSS[human IgG1 constant region omitted here]
# light: ETTLTQSPLSSPVTLGQPASISCRSSQGLVHSDGNTYLSWLQQRPGQSPRLLIYKISNRFSGVPDRFSGSGAGTDFTLKISRVEAEDVGVYYCMQATHHPLTFGGGTKVEIKRTVAAPSVFIFPPSDEQLKSGTASVVCLLNNFYPREAKVQWKVDNALQSGNSQESVTEQDSKDSTYSLSSTLTLSKADYEKHKVYACEVTHQGLSSPVTKSFNRGEC
# B8: VG9B462 (antibody, human IgG1, lambda)
# heavy: QVQLQQSGPGLVKPSETLSLTCTVSGGSISNYYWSWIRQPAGKGLGWIGRIYSSGITNYNPSLKSRVTMSVDTSKNQLSLKLSSVTAADTAVYYCAGIVGVKGAFAIWGQGTMVTVSS[human IgG1 constant region omitted here]
# light: B6 light with A3V, L49M, S71N
# B9: VG9B461 (antibody, human IgG1, lambda)
# heavy: B8 heavy with Q3T, Q5K, Q6E
# light: B6 light with S2P, A3V, P7S, A8S, L49M, S71N, L106V
# B10: VG9B458 (antibody, human IgG1, lambda)
# heavy: B8 heavy with Q5V
# light: B6 light with A3V, L49M, S71N
# Target: T cell receptor (TCR) Vγ9 (TRGV9) on Vγ9+ T cells in PBMCs (human), Q99603
# Assay: cell-based or functional assay
# T cell receptor (TCR) Vγ9 (TRGV9) on Vγ9+ T cells in PBMCs (human), Q99603, sequence (Q99603 21-122): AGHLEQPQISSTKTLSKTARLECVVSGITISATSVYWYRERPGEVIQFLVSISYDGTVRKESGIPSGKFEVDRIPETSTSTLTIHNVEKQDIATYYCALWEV
"CD25+ (Vg9+ cells), flow staining","CD71+ (Vg9+ cells), flow staining","Granzyme B (Luminex, supernatant)","IFNγ (Luminex, supernatant)","IL6 (Luminex, supernatant)","TNFα (Luminex, supernatant)","Vg9 T cell %, flow staining",Binder
36.7%,98.7%,6130,2450,604,255,7.1%,B1
15.1%,88.1%,2380,1530,551,1260,4.1%,B2

# Target: TCR Vδ2 (TRDV2) on γδ T cells in PBMCs (human), A0JD36
# Assay: cell-based or functional assay
# TCR Vδ2 (TRDV2) on γδ T cells in PBMCs (human), A0JD36, sequence (A0JD36 20-115, stated change not applied): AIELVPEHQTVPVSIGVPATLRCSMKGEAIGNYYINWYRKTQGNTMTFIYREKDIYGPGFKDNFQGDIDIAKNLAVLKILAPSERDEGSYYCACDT
"CD25+ (Vg9+ cells), flow staining","CD71+ (Vg9+ cells), flow staining","Granzyme B (Luminex, supernatant)","IFNγ (Luminex, supernatant)","IL6 (Luminex, supernatant)","Vg9 T cell %, flow staining","TNFα (Luminex, supernatant)",Binder
12%,89%,307,44,81,3%,–,B3
27.4%,79.7%,500,138,144,8.4%,1150,B4
19%,90.2%,525,44,30,4.5%,22,B5
15.5%,84.3%,228,44,21,4.2%,15,B6
46.6%,96.4%,3210,889,298,5%,4760,B7
28.5%,83.6%,2640,1460,819,2.7%,7460,B8
34.4%,85.3%,3170,1350,748,2.7%,7900,B9
27.6%,84.5%,2230,1030,384,3.1%,4320,B10

# From patent publication US20220125947A1
